In all, about 33,000 sequences were measured (“E-score (-0.5 to 0.5)”: median about -0.017, highest 2% from about 0.3 on). The list shows a part of the results.
Molecular target: T1, Sut1 (UniProt P53032)
T1 sequence: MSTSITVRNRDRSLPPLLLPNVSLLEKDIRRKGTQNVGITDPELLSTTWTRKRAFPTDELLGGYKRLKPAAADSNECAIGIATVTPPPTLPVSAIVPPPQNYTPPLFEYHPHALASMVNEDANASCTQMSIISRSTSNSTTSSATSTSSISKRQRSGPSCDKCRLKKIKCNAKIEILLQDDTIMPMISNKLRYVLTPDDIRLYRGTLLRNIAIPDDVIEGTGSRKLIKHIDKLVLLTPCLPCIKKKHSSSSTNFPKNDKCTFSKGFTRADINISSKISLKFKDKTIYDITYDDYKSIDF
Assay: PBM E-score (8-mer binding enrichment) (E-score (-0.5 to 0.5)); higher = stronger / more preferred TF binding; most listed sequences are background and not binding sites
Settings: protein concentration: 200 nM; construct: GST-full length
Outline: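 E-scores (a modified Wilcoxon-Mann-Whitney statistic) were assigned by the Universal PBM Analysis Suite to every ungapped eight-base word pooled with its reverse complement. The input came from universal all-10-mer Agilent arrays made double-stranded by primer extension and probed with GST-tagged yeast transcription factors at about 100-200 nM. Fluorescent anti-GST detected bound protein, and masliner normalised the scans.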

Sequence | PBM E-score
GTAAAGAC | 0.121
CCCTCAAA | -0.0431
AGGGATCA | -0.192
ATTAATTC | 0.298
AGCAACCC | -0.215
GTGAGAAC | -0.0779
CACTGAGC | -0.171
GCCCTGAC | -0.27
TACACTGA | -0.0304
GAAGCGAA | 0.00568
AGTATCGG | 0.176
ACATTCGT | 0.078
ACAGACTG | -0.186
TCACACGA | -0.0807
ATGATTAA | 0.225
ACAAAGGA | 0.0444
CAATTAGG | 0.0497
CTCCAATA | 0.171
ATCGGCCG | -0.0616
CACCTATA | -0.0952
AGACGTCG | -0.129
GACGGTAA | -0.0997
GATGGCGA | -0.0183
AGAATACA | 0.117
AGGGCAGG | -0.195

Sequence | PBM E-score
CGGGAGGA | -0.122
ATCTTATG | -0.106
ACCTGGCA | -0.116
AAATTTCA | 0.00137
ACTGGGTA | -0.253
AATATCGT | 0.175
GTAGACCA | -0.179
ATTGGATA | 0.152
CGTTTCAA | 0.115
TGCTAACA | 0.0592
ACCAGTAT | 0.0585
GGGCACCC | -0.266
TACCACTA | -0.118
AAGAAACA | 0.15
ATCAAATC | 0.138
CAGGACAG | -0.0623
GAGGCCAA | -0.0474
AATTGAGA | 0.121
CCGATTAC | 0.12
CGCCCGTA | -0.214
CGCCTCGC | -0.191
ATTTATAG | 0.178
AATGATCG | 0.0864
AGCTTGTC | -0.275
ACCACGAG | -0.0958

Sequence | PBM E-score
GCACGGCC | -0.282
ATGGGACA | -0.334
ACTTACTC | 0.0391
CATTAGAA | 0.179
ACATTAGC | -0.0982
ACTATGAT | 0.144
CATAAGTA | -0.0995
CAAACTGA | -0.00762
AATGGTAA | 0.206
CGACCGCG | -0.108
ACACACCT | 0.0728
GAAATAAA | 0.261
CGCCTGAG | -0.194
ATATTACG | 0.273
CGGACGCA | -0.0415
CCACCCCA | -0.221
GTGTGCAA | -0.123
ACGATGAG | 0.063
CGATCACA | 0.239
GAGACATA | 0.173
GCATTCAA | 0.142
GCTGTTGA | 0.0266
CCCTAATA | -0.0819
CGTTCTAG | 0.0245
CTAGACAG | -0.138

Sequence | PBM E-score
ACTCCCAA | -0.00149
CTCGAAAG | 0.0872
ACTAGTAC | -0.0353
GAGACCAA | 0.163
CTACAGCA | -0.0706
CAATGACA | 0.0479
GATCTTCA | 0.214
GCCTTTTA | -0.029
ACTAAAAA | 0.353
AATTAAGA | 0.136
CAGAAATG | -0.102
GGGTGAGA | -0.216
CGGTTCAG | -0.168
CTCCCGAC | -0.024
AAGGCTTC | 0.00803
GCGCAGAC | -0.0966
CCTTTCAA | 0.11
CCAGAAGA | -0.0584
ACGCGATG | -0.0333
ACCAAACA | 0.122
CACCACAG | -0.0613
CCCTGACC | -0.149
CGACTCTA | -0.169
GAGAGATA | 0.059
CCTACAAG | -0.166

Sequence | PBM E-score
ATGATAGA | 0.106
ACAGCCCC | -0.239
CCCTCAAG | -0.262
AGGATCAC | -0.149
CTCGGTGA | 0.0148
CTGACGTA | -0.128
GTATAGAA | 0.0544
CCATCAGA | -0.213
ACCTCAAC | 0.024
CAAAGAAC | 0.135
AGTGATCG | -0.0497
ATGAACGG | -0.0206
ACTGTATA | 0.13
CTAGCGTC | -0.206
CAACCTAA | 0.039
GAAAGGCA | 0.134
GGAGTGGA | 0.0666
TACGTCCA | -0.143
CATGAAAC | -0.0169
ATCTGTAC | 0.181
ACGGCGAA | 0.0457
GTCGACGA | -0.139
CCCTGGTA | -0.336
TGGACGAA | -0.0708
CGTTGAGC | -0.0678

Sequence | PBM E-score
ACGCCCGT | -0.00657
ATACCATA | 0.167
CGACACCG | -0.118
AGCTATGG | -0.158
CATTAAGG | 0.0414
AAATAACT | 0.228
CTGGTGCC | -0.172
GCTCGACC | -0.118
TAAAATAA | 0.213
ACAGTAAT | 0.149
CTGCTTTA | 0.247
CACCTGAA | 0.0358
GGACAGTA | 0.184
CTACCGGA | 0.222
CACCTATC | -0.0662
TCGGTTCA | 0.0892
GATGCTCA | -0.00757
AATCTGGC | -0.128
ATTCTGCG | -0.0829
AAGTCGCG | 0.0992
AACGAGCG | -0.0329
CAATCAAC | 0.185
ACTTGTCG | -0.0426
GGAAACCA | 0.00587
GGCCTGAA | -0.266

Sequence | PBM E-score
AAATGTAA | 0.206
AGTTTCTC | 0.124
ACTCTACG | -0.0563
GAAGGACA | 0.0334
ACAGCGTA | 0.073
GATCAGAA | -0.128
AGTGACAG | 0.0779
ATACCCCG | 0.182
AAGGGCAA | 0.0159
CATTCAGC | -0.0282
GTCGCGCA | 0.0446
CTACCCAA | -0.0324
CATGTCCA | 0.0978
CTACAAAG | 0.0387
CAGCTATG | -0.0806
CATGGACA | -0.248
GCGTGGCA | -0.0303
AACAGGCG | -0.309
CAGTGTTA | 0.0938
ATAATGTA | 0.21
CAGTCATA | -0.0857
TAGGGCAA | -0.143

— the supplement of paper PMC3334620
